# In PubChem BioAssay (NCI):
# Where “and” joins values, the source holds several entries; their conditions need not be identical. Identical values can stand only once.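 Exposure lasted 48 hours, with cells grown in 96-well plates and compounds tested at five concentrations. At the GI50, growth is halved. The concentration for full growth arrest is given as TGI.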
# Tested on: NCI-H322M lung
# Assay: NCI-60 cell line screen, 48 h
SMILES,GI50 [µM],TGI
COC(C(=O)[C@@H](O)[C@@H](C)O)[C@@H]1Cc2cc3cc(O[C@H]4C[C@@H](O[C@H]5C[C@@H](O)[C@H](O)C(C)O5)[C@H](O)C(C)O4)c(C)c(O)c3c(O)c2C(=O)[C@H]1O[C@H]1C[C@@H](O[C@H]2C[C@@H](O[C@H]3C[C@@H](O)[C@H](OC)C(C)O3)[C@@H](O)C(C)O2)[C@H](O)C(C)O1 (stereo partly drawn),0.0183,> 33.3 µM
CC(O)CC(O)(C(F)(F)F)C(F)(F)F (stereo not drawn),–,> 10 µM
CC(C)(C)OC(=O)n1c(-c2ccccc2F)cc(=O)c2cc3c(cc21)OCO3,–,> 100 µM
CCOc1ccccc1NC(=O)C(C#N)C1=C(Cl)C(=O)c2ccccc2C1=O (stereo not drawn),–,3 µM and 3.22 µM
O=C(Nc1ccc(-n2cc(-c3ccncc3)c(-c3ccc(O)c(Cl)c3)n2)cc1)Nc1cccc(Cl)c1Cl,16.8,> 32.5 µM
Cc1c(C#N)c(N)n(C2OCC(O)C(O)C2O)c(=S)c1C#N (stereo not drawn),–,> 100 µM
COC(=O)C1=C(O)C(C(=O)OC)[C@@]2(O)[C@@H](C(=O)OC)[C@H](C)[C@@H](C)[C@@H]1[C@@H]2C(=O)OC (stereo partly drawn),–,> 100 µM
CCOC(=O)[C@@H]1ON2O[C@@H](OC3CCCC3(c3ccccc3)c3ccccc3)C[C@H]3OC(=O)[C@@H]1C32 (stereo partly drawn),–,> 100 µM
OC1(c2ccc(Cl)cc2)c2ccc(CN3CCCC3)cc2C2=NCCN21 (stereo not drawn),–,27.8 µM
N.N.NCCCCCCCCCN.O=C([O-])CC(=O)[O-].O=C([O-])CC(=O)[O-].[Pt+4].[Pt+4],> 100,> 100 µM
COC(=O)[C@H](C)NC(=O)[C@H](CSC)N1C(=O)N[C@@H](C(C)C)C1=O,–,> 100 µM
Cc1ncc([N+](=O)[O-])n1CCNS(=O)(=O)CCCn1ncnc1[N+](=O)[O-],–,> 100 µM
CC1=C[C@@H](C)C[C@]2(C)CC[C@H](O2)[C@]23CC[C@](C(=O)O)(C[C@H](O2)[C@@H]2O[C@@](C)(CC2=O)[C@@H](O)[C@H]2CC[C@@]4(CCC[C@@H](O4)[C@H](C)C(=O)O[C@H]4C[C@H]([C@]5(O)OCC[C@H](C)[C@@H]5O)O[C@H]4C=C1)O2)O3,–,> 10 µM
Cn1ccnc1Sc1ccc(C=Nc2ccc3nc(SCC(=O)NC4CCCCC4)sc3c2)cc1[N+](=O)[O-],–,> 100 µM
COC(=O)c1cc2c(cc1CC(Cc1ccc3c(c1)CCC3)C(=O)OC)CCC2 (stereo not drawn),–,> 100 µM
CCCCCCCCCCN1CCC(N2CCCCC2)CC1,16.4,31 µM
CC(=O)OC1C2CCC1C1C2C2(Cl)C(Cl)=C(Cl)C1(Cl)C2(Cl)Cl (stereo not drawn),–,42.6 µM
Cc1ccc(S(=O)(=O)NC(=O)NNc2ccc(F)cc2)cc1,–,> 100 µM
CCOC(CN(C)C(=S)Nc1cccc2ccccc12)OCC,–,> 10 µM
Cn1cc(-c2ccc(-c3cncc(Cl)c3N3CCC4(CCNC4=O)CC3)cc2)cn1,> 100,> 100 µM
CC1=C(C(=O)NNS(=O)(=O)c2ccc(C)cc2)CC(C(=O)NNS(=O)(=O)c2ccc(C)cc2)=C(C)N1,–,> 100 µM
COc1ccc(N=Nc2c3c(c(O)c4ccccc24)CCC(C)(C)O3)cc1,–,93.7 µM
CC(C)(C)C(=O)C(Cc1ccccc1)C(=O)C(C)(C)C,–,> 100 µM

SMILES,GI50 [µM],TGI
O=C(O)CSc1n[nH]c(Cc2ccccc2)n1,–,> 100 µM
N#CC(=N)c1ncn(-c2ccccc2N)c1N,–,> 100 µM
CCCCc1c2c(nc3c1CCC/C3=C\c1ccccc1)/C(=C/c1ccccc1)CCC2,–,> 100 µM
Cc1cc2nc(-c3cc(C(C)(C)C)c(O)c(C(C)(C)C)c3)[nH]c2cc1C,–,> 100 µM
CC[C@@]1(O)C(=O)OCc2c1cc1n(c2=O)Cc2c-1nc1cc(F)c(C)c3c1c2[C@@H](N)CC3,0.0151,> 100 µM
O=C1CS(=O)C23c4cc5ccccc5n4CCC2CCCN13 (stereo not drawn),–,> 100 µM
COc1cc(C2C(C(=O)Nc3cc(F)c(F)cc3F)=C(C)NC(C)=C2C(=O)Nc2cc(F)c(F)cc2F)ccc1O,–,90.9 µM
COC1=C(Br)C(=O)c2nc(C)ccc2C1=O,–,54 µM
Nc1ccccc1SC1CC(=O)N(c2ccc(Cl)c(Cl)c2)C1=O (stereo not drawn),88,> 100 µM
O=C(O)CC(NC(=O)/C(=C/c1ccccc1O)NC(=O)c1ccccc1)C(=O)O (stereo not drawn),–,> 100 µM
Nc1ccc2nc3n(c2c1)C(=O)c1ccccc1-3,–,> 100 µM
O=C1CSC(c2ccc(-c3nc4ccccc4s3)cc2)=N1,13.2,73.9 µM
O=C1c2cccc(NCCNCCO)c2C(=O)c2cccc(NCCNCCO)c21,–,2.78 µM
Nc1nc(N)c2cc(CNc3ccc(C(=O)NC(CC(=O)O)C(=O)O)c(Cl)c3)ccc2n1 (stereo not drawn),0.07,> 500 µM
S=C1CC(c2ccccc2)Sc2ccc(Cl)cc2N1 (stereo not drawn),–,> 100 µM
N#CCCN(CCC#N)c1ccc(/C=C2\SC(=S)NC2=O)cc1Br,–,> 100 µM
O=[N+]([O-])c1ccc(C2=Nc3ccccc3SC(c3ccccc3)C2)cc1 (stereo not drawn),–,> 100 µM
COc1ccc(/C=C(/c2ccccc2)[N+](=O)[O-])cc1,1.52,2.86 µM
C=C(C)[C@@]1(O[Si](C)(C)C)CCCC[C@@H]1CC(Sc1ccccc1)Sc1ccccc1,–,33 µM
O=C(O)C12CC3(C(=O)O)CC(C(=O)O)(CC(C(=O)O)(C1)C3=O)C2=O,–,> 100 µM
OCCNCCOc1ccc(/C(=C(/Cl)c2ccccc2)c2ccccc2)cc1,–,24.9 µM
COc1ccc(-c2csc(NC(=O)CSc3nc(C)c(-c4ccccc4)n3Nc3ccccc3)n2)cc1,> 100,> 100 µM
COc1ccc2c3c(Nc4ccc(/C(C)=N/O)cc4)[nH]c4ccccc4c-3c(N=O)c2c1,2.26,5.46 µM
